Source: the supplement of paper PMC4604168 (melanoma cell lines)
The list shows a part of the results. Most values come without repeats; read them as rough.

What was measured:
Experiment in all cases: cell count relative to DMSO control; melanoma cells; higher = more viable cells
Conditions in all cases: library dose: standard library concentration; 72 h
[1] = system: G361
[2] = system: IPC-298
[3] = system: IST-MEL1
[4] = system: LB2518-MEL
[5] = system: LOXIMVI
[6] = system: MEL-HO
[7] = system: MZ2-MEL
[8] = system: MeWo
[9] = system: RPMI7951
[10] = system: RVH-421
[11] = system: SkMel28
[12] = system: SkMel2
[13] = system: SkMel30
[14] = system: SkMel5
[15] = system: UACC257
[16] = system: UACC62
[17] = system: WM115
[18] = system: WM1716
[19] = system: WM3526
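Also: cells treated in 1,536-well plates, then fixed and DAPI-stained, with nuclei counted from automated high-throughput microscope images.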

Row | SMILES | cell count [1] [%] | cell count [2] [%] | cell count [3] [%] | cell count [4] [%] | cell count [5] [%] | cell count [6] [%] | cell count [7] [%] | cell count [8] [%] | cell count [9] [%] | cell count [10] [%] | cell count [11] [%] | cell count [12] [%] | cell count [13] [%] | cell count [14] [%] | cell count [15] [%] | cell count [16] [%] | cell count [17] [%] | cell count [18] [%] | cell count [19] [%]
1 | N#CC[C@H](C1CCCC1)n1cc(-c2ncnc3[nH]ccc23)cn1 [ruxolitinib] + O=c1cc(-c2cccc3c2Sc2ccccc2S3)oc(N2CCOCC2)c1 [KU55933] (first compound 5 µM, partner dose 5 µM) | 65.8 | 86.4 | 88.2 | 104 | 94.3 | 74.2 | 93.8 | 78.7 | 67.2 | 121 | 85 | 103 | 97.4 | 76 | 87.6 | 103 | 86.6 | 78.4 | 72.9
2 | CC[C@]1(O)C[C@H]2CN(CCc3c([nH]c4ccccc34)[C@@](C(=O)OC)(c3cc4c(cc3OC)N(C=O)[C@H]3[C@@](O)(C(=O)OC)[C@H](OC(C)=O)[C@]5(CC)C=CCN6CC[C@]43[C@@H]65)C2)C1 [vincristine] + Cc1cc([N+](=O)[O-])ccc1NS(=O)(=O)c1cc(Cl)ccc1Cl [FH535] (first compound 0.0005 µM, partner dose 5 µM) | 30.3 | 41.3 | 32.2 | 63.1 | 49 | 46.2 | 31.1 | 29.1 | 29.8 | 47.2 | 33.4 | 28.3 | 59.1 | 32.2 | 61.8 | 69.8 | 17.7 | 47.6 | 46.1
3 | N#CC[C@H](C1CCCC1)n1cc(-c2ncnc3[nH]ccc23)cn1 [ruxolitinib] + O=C(Nc1ccccc1)c1cc([N+](=O)[O-])ccc1Cl [GW9662] (first compound 5 µM, partner dose 10 µM) | 55 | 84.6 | 93.4 | 73.6 | 78.9 | 65.3 | 75.2 | 62.4 | 65.5 | 63.9 | 46.4 | 87.5 | 99.6 | 73.9 | 63.5 | 108 | 71.3 | 81 | 76
4 | Cc1cc(Nc2cc(N3CCN(C)CC3)nc(Sc3ccc(NC(=O)C4CC4)cc3)n2)n[nH]1 [Tozasertib] + COc1ccc(-c2ccc3c(N4CCOCC4)nc(N4C[C@@H](C)O[C@@H](C)C4)nc3n2)cc1CO [KU0063794] (first compound 0.03 µM, partner dose 0.1 µM) | 76.9 | 75.8 | 74.9 | 74.4 | 76.8 | 78.4 | 73.9 | 58.7 | 82.6 | 79.2 | 56.4 | 86.5 | 90.3 | 57.3 | 94.2 | 79.3 | 63 | 63.6 | 79.1
5 | Cc1cc(Nc2cc(N3CCN(C)CC3)nc(Sc3ccc(NC(=O)C4CC4)cc3)n2)n[nH]1 [Tozasertib] + COc1cc(N2CCC(N3CCN(C)CC3)CC2)ccc1Nc1ncc(Cl)c(Nc2ccccc2S(=O)(=O)C(C)C)n1 [NVP-TAE684] (first compound 0.03 µM, partner dose 0.4 µM) | 70.7 | 79 | 93.7 | 81.1 | 93.5 | 70.8 | 52.4 | 67.1 | 62.1 | 91.8 | 57.5 | 66.2 | 110 | 59.5 | 79.8 | 75.8 | 51.7 | 60.8 | 77.5
6 | CC[C@]1(O)C[C@H]2CN(CCc3c([nH]c4ccccc34)[C@@](C(=O)OC)(c3cc4c(cc3OC)N(C=O)[C@H]3[C@@](O)(C(=O)OC)[C@H](OC(C)=O)[C@]5(CC)C=CCN6CC[C@]43[C@@H]65)C2)C1 [vincristine] + COc1cc2ncnc(Nc3ccc(Oc4ccccc4)cc3)c2cc1OC [SrcI1] (first compound 0.0005 µM, partner dose 10 µM) | 64.2 | 75.2 | 76.2 | 83 | 42.7 | 83.1 | 74.3 | 74.5 | 45.4 | 68.4 | 44.8 | 83.5 | 56.9 | 54.5 | 88.4 | 48.4 | 40.8 | 46.6 | 44.4
7 | CC[C@]1(O)C[C@H]2CN(CCc3c([nH]c4ccccc34)[C@@](C(=O)OC)(c3cc4c(cc3OC)N(C=O)[C@H]3[C@@](O)(C(=O)OC)[C@H](OC(C)=O)[C@]5(CC)C=CCN6CC[C@]43[C@@H]65)C2)C1 [vincristine] + COc1ccc(-c2ccc3c(N4CCOCC4)nc(N4C[C@@H](C)O[C@@H](C)C4)nc3n2)cc1CO [KU0063794] (first compound 0.0005 µM, partner dose 0.1 µM) | 85 | 76 | 90.7 | 81.1 | 92 | 91 | 90.3 | 54.2 | 66.7 | 74.1 | 75.9 | 79.6 | 60.4 | 48.7 | 73.4 | 71.9 | 62.6 | 49.6 | 61.4
8 | N#CC[C@H](C1CCCC1)n1cc(-c2ncnc3[nH]ccc23)cn1 [ruxolitinib] + Oc1nc(-c2ccc(C(F)(F)F)cc2)nc2c1CSCC2 [XAV939] (first compound 5 µM, partner dose 10 µM) | 83.6 | 92.3 | 94.6 | 119 | 122 | 86.2 | 85.3 | 94.5 | 83.2 | 75.4 | 92.5 | 96.5 | 113 | 75.4 | 86.7 | 98.6 | 95.2 | 54.9 | 121
9 | CC[C@]1(O)C[C@H]2CN(CCc3c([nH]c4ccccc34)[C@@](C(=O)OC)(c3cc4c(cc3OC)N(C=O)[C@H]3[C@@](O)(C(=O)OC)[C@H](OC(C)=O)[C@]5(CC)C=CCN6CC[C@]43[C@@H]65)C2)C1 [vincristine] + c1cc(-c2cnn3cc(-c4ccc(OCCN5CCCCC5)cc4)cnc23)ccn1 [Dorsomorphin] (first compound 0.0005 µM, partner dose 2 µM) | 18.4 | 64.6 | 44.4 | 42.6 | 56.9 | 63.5 | 26.7 | 25.4 | 29.2 | 29.6 | 13.6 | 14 | 42.9 | 28.5 | 42.3 | 43.4 | 21.7 | 31.3 | 27.3
10 | Cc1cc(Nc2cc(N3CCN(C)CC3)nc(Sc3ccc(NC(=O)C4CC4)cc3)n2)n[nH]1 [Tozasertib] + COC(=O)c1sccc1S(=O)(=O)Nc1ccc(Nc2ccccc2)cc1OC [GSK0660] (first compound 0.03 µM, partner dose 5 µM) | 71.8 | 77.7 | 90.5 | 70.4 | 102 | 89 | 57.1 | 73.7 | 61.6 | 74.1 | 42.3 | 84.8 | 75.9 | 70.2 | 80 | 85.3 | 52.1 | 78.8 | 72.9
11 | N#CC[C@H](C1CCCC1)n1cc(-c2ncnc3[nH]ccc23)cn1 [ruxolitinib] + Oc1cc(-c2nc(-c3ccccc3)[nH]c2-c2ccncc2)ccc1Cl [L779450] (first compound 5 µM, partner dose 1 µM) | 67.7 | 99.4 | 91 | 123 | 85.9 | 87 | 113 | 103 | 90.1 | 75.6 | 51.1 | 38.8 | 89.7 | 61.4 | 98.8 | 61.7 | 65.6 | 77.1 | 61.6
12 | Cc1cc(Nc2cc(N3CCN(C)CC3)nc(Sc3ccc(NC(=O)C4CC4)cc3)n2)n[nH]1 [Tozasertib] + CCCCCCCCCCCC1=C(O)C(=O)C=C(O)C1=O [Embelin] (first compound 0.03 µM, partner dose 6 µM) | 72.6 | 84.5 | 56.3 | 79.8 | 87.6 | 67.2 | 73.1 | 82 | 68.5 | 73.2 | 65.6 | 81.3 | 100 | 74.6 | 87.4 | 69.8 | 71.6 | 62.8 | 90.9
13 | N#CC[C@H](C1CCCC1)n1cc(-c2ncnc3[nH]ccc23)cn1 [ruxolitinib] + O=C(O)C(=O)Nc1sc2c(c1C(=O)O)CCNC2 [TCS401] (first compound 5 µM, partner dose 8.33333 µM) | 74.8 | 84.7 | 95.1 | 112 | 117 | 71.4 | 97.4 | 74.2 | 78 | 73.9 | 81 | 92.1 | 97.2 | 63.6 | 73.8 | 82.2 | 91.3 | 79.1 | 92.7
14 | Cc1cc(Nc2cc(N3CCN(C)CC3)nc(Sc3ccc(NC(=O)C4CC4)cc3)n2)n[nH]1 [Tozasertib] + O=C(Nc1ccccc1)c1cc([N+](=O)[O-])ccc1Cl [GW9662] (first compound 0.03 µM, partner dose 10 µM) | 65.9 | 94.4 | 85.4 | 84 | 72.5 | 85.6 | 75.5 | 65.8 | 81.2 | 77.6 | 50.3 | 104 | 101 | 69.7 | 96 | 64.5 | 52.3 | 69.2 | 99.1
15 | CC[C@]1(O)C[C@H]2CN(CCc3c([nH]c4ccccc34)[C@@](C(=O)OC)(c3cc4c(cc3OC)N(C=O)[C@H]3[C@@](O)(C(=O)OC)[C@H](OC(C)=O)[C@]5(CC)C=CCN6CC[C@]43[C@@H]65)C2)C1 [vincristine] + Cn1cc(/C=C2\C(=O)Nc3cccnc32)c2ccccc21 [GW441756] (first compound 0.0005 µM, partner dose 2 µM) | 83.5 | 84.6 | 73.2 | 103 | 88.7 | 105 | 62.1 | 62.4 | 43.4 | 71.7 | 47.8 | 34.8 | 55.9 | 51.5 | 73.2 | 48.3 | 47.6 | 51.5 | 55.8
16 | CC[C@]1(O)C[C@H]2CN(CCc3c([nH]c4ccccc34)[C@@](C(=O)OC)(c3cc4c(cc3OC)N(C=O)[C@H]3[C@@](O)(C(=O)OC)[C@H](OC(C)=O)[C@]5(CC)C=CCN6CC[C@]43[C@@H]65)C2)C1 [vincristine] + N#Cc1c(O)c2c(-c3ccc(-c4ccccc4O)cc3)csc2[nH]c1=O [A769662] (first compound 0.0005 µM, partner dose 10 µM) | 56.3 | 95.5 | 44.5 | 71.3 | 56.3 | 73.5 | 46 | 37.5 | 24.3 | 38.2 | 22.6 | 13.3 | 44.9 | 26.6 | 64.7 | 58.3 | 32.7 | 29 | 33.1
